Data as given in PMC6919601, “Identification of Plasmodium dipeptidyl aminopeptidase allosteric inhibitors by high throughput screening” (PLoS ONE, 2019).
Hit rate of the full screen: of about 110,000 compounds, about 230 (0.21%) showed an effect of 50% or more. This is one part of the list.

Target: DPAP1 (Plasmodium falciparum, UniProt Q8IIJ9)
Experiment: primary screen, percent inhibition; read by cleavage of a fluorogenic dipeptide substrate; higher = more effect of the substance
Design: species or system P. falciparum D10 trophozoite lysates; single well
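Further: 30 min substrate incubation versus DMSO and 10 µM JCP410 controls.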

Chain of DPAP1 (Q8IIJ9 whole entry, looked up): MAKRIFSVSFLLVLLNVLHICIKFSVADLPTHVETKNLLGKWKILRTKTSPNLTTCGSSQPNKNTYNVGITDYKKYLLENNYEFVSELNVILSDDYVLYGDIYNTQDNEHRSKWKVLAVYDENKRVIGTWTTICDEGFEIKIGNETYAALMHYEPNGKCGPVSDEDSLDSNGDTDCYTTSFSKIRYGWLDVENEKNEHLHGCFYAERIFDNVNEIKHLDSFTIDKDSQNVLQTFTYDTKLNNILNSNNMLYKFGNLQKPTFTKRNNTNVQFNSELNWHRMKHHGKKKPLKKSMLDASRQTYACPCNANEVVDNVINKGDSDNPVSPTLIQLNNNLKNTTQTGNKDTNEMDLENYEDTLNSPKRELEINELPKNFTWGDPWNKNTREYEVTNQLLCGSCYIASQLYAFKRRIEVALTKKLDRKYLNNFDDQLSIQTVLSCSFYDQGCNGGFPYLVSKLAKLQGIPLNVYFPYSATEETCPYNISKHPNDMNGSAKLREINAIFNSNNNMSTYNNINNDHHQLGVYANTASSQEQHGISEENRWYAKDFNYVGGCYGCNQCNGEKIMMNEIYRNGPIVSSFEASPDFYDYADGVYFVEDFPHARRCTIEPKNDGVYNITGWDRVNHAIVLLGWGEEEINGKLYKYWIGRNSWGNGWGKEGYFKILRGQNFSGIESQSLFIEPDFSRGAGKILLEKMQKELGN

SMILES | % Inhibition @ 10 uM [%]
COC(=O)C1=C(C)N(Cc2cccnc2)C(=O)/C1=C\c1ccccc1OCc1ccccc1 | 4.32
Cc1ccccc1Cc1cnc(NC(=O)C2(C)Cc3ccccc3C(=O)O2)s1 (stereo not drawn) | 0.747
CN1CCC(NCc2ccccc2Cl)CC1 | -8.55
CC(C)(C)Oc1ncc(-c2ccccn2)c(OC(C)(C)C)n1 | -1.04
CC1CC(CCN)(c2ccccc2)C(C)CN1C (stereo not drawn) | 1.54
CCOc1c(Cl)cc(C(=O)N(Cc2cccc(F)c2)C2CCS(=O)(=O)C2)cc1Cl (stereo not drawn) | 5.17
COc1ccc(-c2ccc(C#N)c(SCC(=O)NC3CC3)n2)cc1OC | 1.57
CC1=C(C(=O)OCc2ccc(C)cc2)C(c2ccccc2C)CC(=O)N1 (stereo not drawn) | -2.24
O=C(NC1CCCc2ccccc21)C1CCC(CNS(=O)(=O)c2cccc3nsnc23)CC1 (stereo not drawn) | -0.465
Cc1ccccc1OCc1nn2c(-c3ccncc3)nnc2s1 | 2.89
CCCO/C(O)=C1\C(C)=NC2=C(C(=O)CCC2)C1c1ccc(OCCC)c(OC)c1 (stereo not drawn) | -1.03
Cc1ccc(Cn2cnc3ccccc32)cc1 | 0.132
c1ccc2c(c1)nc1n2CN(CC2CCCO2)CN1 (stereo not drawn) | 2.1
CCCc1cc(O)n2nc(-c3ccccc3)cc2n1 | -4.32
COc1cccc(NS(=O)(=O)c2ccc(NC(C)=O)cc2)c1 | -2.94
COc1ccccc1CN1CCN(Cc2cccc(Cl)c2)CC1 | -3.87
O=C(O)c1cccc(C(=O)O)c1Cl | 1.72
CC(C)(C)c1ccc(S(=O)(=O)NCCCCCC(=O)O)cc1 | 15.9
COC(=O)c1cc(S(=O)(=O)N(Cc2ccccc2OC)C2CCN(C)CC2)c[nH]1 | -5.67
Cc1cc(NC(=O)c2cc(-c3ccc(O)cc3)on2)no1 | -2.65
COc1ccc(C(=O)Nc2ccccc2Br)cc1OC | 1.48
Cc1ccc(NC(=O)COc2ccccc2C(C)C)cc1 | -9.29
Cc1ccc(-c2c(N3CCc4ccccc4C3)c(=O)c2=O)cc1 | 6.64
Cc1ccccc1C(=O)Nc1nnc(C2CCCCC2)s1 | -8.42
COC(=O)c1c(C)nn(CCC#N)c1N | -3.53
CC(=O)Nc1c(C#N)c(C)n(-c2ccc(Br)cc2)c1C(=O)c1ccccc1 | -2.51

SMILES | % Inhibition @ 10 uM [%]
Cc1[nH]c2ccccc2c1CN1CCN(c2cccc(C(F)(F)F)c2)CC1 | 7.8
Cc1ccc(C(=O)NC2(C(F)(F)F)C(=O)N(Cc3ccccn3)C3=C2C(=O)CC(C)(C)C3)cc1 (stereo not drawn) | 1.62
Cc1ccc(NC(=O)C(Cc2ccc([N+](=O)[O-])cc2)N2C(=O)c3ccccc3C2=O)cc1[N+](=O)[O-] (stereo not drawn) | -2.47
O=C(NCCc1ccccc1)/C(=C/c1ccco1)NC(=O)c1cccc(Br)c1 | -6.36
CC1(C)CC2CC(C)(CN2C(=O)COc2ccc(Cl)cc2)C1 (stereo not drawn) | -3.09
CC1(C)C/C(=N/NC(N)=S)c2ccoc2C1 | 9.21
COC(=O)c1ccc2oc(-c3ccc(-c4nc5cc(C(=O)OC)ccc5o4)c4ccccc34)nc2c1 | 1.38
CCOC(=O)N1CCN(C(=O)CS(=O)(=O)Cc2nc(-c3ccc(C)cc3)oc2C)CC1 | -0.138
Cc1cccnc1Nc1nc(-c2ccccn2)cs1 | 0.0539
COc1cccc2c1cc1c(=O)n(CC(=O)N3CCC4(CC3)OCCO4)nc(C)n12 | 3.29
CCN(CC)CCN(C)Cc1ccc2ccc3cccc4ccc1c2c34 | 5.8
CCc1ccc(N2CC(C(=O)O)CC2=O)cc1 (stereo not drawn) | -2.53
O=C(O)CN1C(=O)C(Cc2ccc(Cl)cc2)c2ccccc21 (stereo not drawn) | 1.17
COc1ccccc1NC(=O)c1ccc(Cl)cc1 | 1.42
O=C(NCCc1ccccc1)C(=O)NCC1OCCc2ccccc21 (stereo not drawn) | -1.6
Cc1ccc(C2C(C#N)=C(N)Oc3[nH]nc(-c4ccccc4)c32)s1 (stereo not drawn) | -0.661
O=C(Nc1ccc([N+](=O)[O-])cc1)c1ccco1 | -4.26
CCOC(=O)C1=C(CS(=O)(=O)c2ccccc2)NC(=O)NC1c1ccccc1 (stereo not drawn) | -0.644
COc1ccc(C(=O)C2=C(O)C(=O)N(CCN3CCOCC3)C2c2ccc(Cl)cc2)cc1OC (stereo not drawn) | -5.51
Cc1ccc2cc3cc(C(=O)N(C)C4CCCCC4)oc3nc2c1 | -1.54
Cc1nc(Oc2ccccc2)c2oc3ccccc3c2n1 | -4.85
Cc1ccc(S(=O)(=O)N(C)CC(=O)N2CCN(c3ccccc3F)CC2)cc1 | 2.37
CC1=C(C(=O)c2ccccc2)C(c2ccccc2)C2=C(O)CC(C)(C)CC2=N1 (stereo not drawn) | -0.105
Cc1ccc2c(C)nc(NC3=NC(=O)CC(C(=O)Nc4ccc(Br)cc4)N3)nc2c1 (stereo not drawn) | 3.46
Cc1nn(Cc2ccc(F)cc2)c(C)c1NC(=O)C1c2ccccc2Oc2ccccc21 | 7.04
CC(C(=O)N(C1CCCCC1)C1CCCCC1)N1C(=O)c2ccccc2C1=O (stereo not drawn) | -5.28

SMILES | % Inhibition @ 10 uM [%]
CN(C)CCNCC12CC3CC(CC(C3)C1)C2 | 2.45
O=C(NCc1ccccc1)C1CCC(CNc2c(N3CCCC3)c(=O)c2=O)CC1 (stereo not drawn) | 1.22
Cc1cccc(Oc2nc3ccccn3c(=O)c2/C=C(\C#N)C(=O)NC2CCCCC2)c1C | 3.63
CCCCCC1CCC(c2ccc(-c3ccc(OCC)cc3)nc2)CC1 (stereo not drawn) | -3.67
CCc1[nH]nc2c1C1(CCN(C(=O)c3ccccc3)CC1)C(C#N)=C(N)O2 | 2.38
O=C(C1CC1c1ccccc1)N1CCCCC1 (stereo not drawn) | -0.999
O=C(COc1ccccc1)Nc1ncc2c(n1)CC(c1ccc(F)cc1)CC2=O (stereo not drawn) | -5.2
CCCCCCN1C(=O)NC(=O)/C(=C\c2ccccc2Cl)C1=O | -4.21
CC(=O)Nc1c(Cl)cc(N2C(=O)c3ccc(C(=O)O)cc3C2=O)cc1Cl | 8.4
O=C1NN(c2ccc(Cl)c(Cl)c2)C(=O)/C1=C/c1ccccc1 | 3.42
Cc1cc(C)nc(SCCn2c(N3CCC(C)CC3)nc3c2c(=O)[nH]c(=O)n3C)n1 | 2.41
Cc1ccc(CC2CC(=O)N(c3nccs3)C2=O)cc1 (stereo not drawn) | 3.73
Cc1cc(C(F)(F)F)nc(Nc2nc3ccccc3o2)n1 | -4.39
O=S(=O)(c1ccc(Cl)cc1)c1nc(-c2ccccc2)oc1N1CCOCC1 | -6.24
Cc1ccc(/C(O)=C/C=N/c2cc(C(C)(C)C)on2)cc1 | -0.25
O=C(c1ccco1)N(Cc1nc(-c2ccccc2)no1)C1CCCCC1 | 3.74
Cc1ccc(C(=O)Nc2cc(C(=O)O)cc(C(=O)O)c2)cc1C | 3.29
CCc1nc2ccccc2c(NC(=O)CN2CCCCCC2)c1C | -1.86
COc1ccc(-c2noc(CCC(=O)NCc3cc(OC)ccc3OC)n2)cc1 | 0.675
CCO/C(O)=C1\C(C)=NC2=C(C(=O)CCC2)C1c1cccc(F)c1 (stereo not drawn) | 5.01
CN(CCc1ccccn1)Cc1ccco1 | 3.48
O=C(c1ccco1)N1CCC(N(CCc2ccccc2)Cc2ccccc2)CC1 | -3.64
OC1CSc2nc3ccccc3n21 (stereo not drawn) | -1.29
CCCN1CCN(c2cc(C)nc3c(-c4ccc(Cl)cc4)c(C)nn23)CC1 | -2.72
CC(C)(C)NCc1ccc([N+](=O)[O-])cc1 | -3.58
CCOC(=O)N1CCN(C/C=C/c2ccccc2)CC1 | 1.9

SMILES | % Inhibition @ 10 uM [%]
Cc1nnc(SCC(=O)NCc2ccco2)c2cc3sccc3n12 | -6.25
COC(=O)C1=CN(CC2CCCO2)C=C(C(=O)OC)C1c1ccc(O)c(OC)c1 (stereo not drawn) | -6.95
CC1=CC(C)C2C(=O)N(c3ccc(C(=O)O)cc3)C(=O)C2C1 (stereo not drawn) | -3.84
OC(CNC1CC1)Cn1c2ccccc2c2ccccc21 (stereo not drawn) | -5.14
COc1cccc(OCC(=O)Nc2cccc(C)n2)c1 | 2.03
O=C(Nc1ccc(Cc2ccc(NC(=O)c3ccco3)cc2)cc1)c1ccco1 | -5.69
COc1ccccc1-c1cc(C(=O)NCc2ccco2)no1 | 4.5
CC(C)CC(C(=O)NCC#N)n1cnc2c(Cl)nc(Cl)nc21 (stereo not drawn) | 1.7
CN(C)c1ccc(-c2ccc3ccccc3n2)cc1 | 5.06
O=C(NCCN1CCCC1)c1cccc(F)c1 | -4.52
COc1cccc(S(=O)(=O)NCc2ccc(C(=O)NCC3CCCO3)cc2)c1 (stereo not drawn) | -7.22
COc1ccccc1NC(=O)c1c(N)sc2c1CCC2 | -2.79
NC(=O)C1CCCN(C2CCSC2)C1 (stereo not drawn) | -3.6
O=C(NCc1ccccn1)c1nnc(Cc2ccc(Cl)cc2Cl)o1 | 11.5
Cc1cc(C)c2nc(N3CCC(C(=O)NCCC4=CCCCC4)CC3)sc2c1 | 3.4
Cn1c(=O)c(-c2ccccc2N)nc2cc3ccccc3cc21 | -3.77
Cc1ccc(C(C)C)c(OCC(=O)Nc2ccc(S(=O)(=O)Nc3cc(C)on3)cc2)c1 | 2.79
CC1(C)Cc2c(c(N3CCOCC3)nc3sc(C(=O)N4CCCCC4)c(N)c23)CO1 | 3.93
COc1ccc(Cl)cc1N(CC(=O)NCc1ccc(C)cc1)S(C)(=O)=O | 3.17
CCC(NC(=O)c1ccc(S(=O)(=O)N2CCCCC2)cc1)C12CC3CC(CC(C3)C1)C2 (stereo not drawn) | -4.35
CC(Oc1ccccc1)C(=O)NCc1ccccc1 (stereo not drawn) | -2.65
CCOC(=O)c1nnn(-c2nonc2N)c1COc1ccc2c(c1)OCO2 | 19.4
Cc1ccc(CNC(=O)c2cc(S(=O)(=O)N3CCCCC3)c[nH]2)o1 | 1.46
CCCCNc1nc2c(-c3cccc(C(F)(F)F)c3)nnn2c2ccccc12 | -6.52
